Assay results reported in article PMC9911399, “Two distinct binding modes provide the RNA-binding protein RbFox with extraordinary sequence specificity”.
Substitutions are numbered along the chain they refer to; changes in the protein carry UniProt numbers. The list shows a part of the results.

T1: RBFOX1 RRM (Homo sapiens, UniProt Q9NWB1 109-208)
T1 sequence: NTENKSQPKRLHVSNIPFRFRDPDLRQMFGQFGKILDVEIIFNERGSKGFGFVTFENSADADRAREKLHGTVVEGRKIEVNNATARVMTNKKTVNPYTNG

B1: UAUGACA (DNA:RNA)
RNA: GGGAGACCGGAAUUCAGAUUGUCCUAUGACAUUAAAUCCCGUCGUAGCCACCA
DNA 1: CAATCTGAATTCCGGTCTCCC
DNA 2: TGGTGGCTACGACGGGATT
B2: UGAAUCG (DNA:RNA)
RNA: B1 RNA with A26G, U27A, G28A, A29U, A31G
DNA 1: CAATCTGAATTCCGGTCTCCC
DNA 2: TGGTGGCTACGACGGGATT
B3: CAGGUGC (DNA:RNA)
RNA: B1 RNA with U25C, U27G, A29U, C30G, A31C
DNA 1: CAATCTGAATTCCGGTCTCCC
DNA 2: TGGTGGCTACGACGGGATT
B4: GGCCAGA (DNA:RNA)
RNA: B1 RNA with U25G, A26G, U27C, G28C, C30G
DNA 1: CAATCTGAATTCCGGTCTCCC
DNA 2: TGGTGGCTACGACGGGATT
B5: CAGAUAU (DNA:RNA)
RNA: B1 RNA with U25C, U27G, G28A, A29U, C30A, A31U
DNA 1: CAATCTGAATTCCGGTCTCCC
DNA 2: TGGTGGCTACGACGGGATT
B6: UGUGCCC (DNA:RNA)
RNA: B1 RNA with A26G, A29C, A31C
DNA 1: CAATCTGAATTCCGGTCTCCC
DNA 2: TGGTGGCTACGACGGGATT
B7: UGUUUUG (DNA:RNA)
RNA: B1 RNA with A26G, G28U, A29U, C30U, A31G
DNA 1: CAATCTGAATTCCGGTCTCCC
DNA 2: TGGTGGCTACGACGGGATT
B8: AAUCCUG (DNA:RNA)
RNA: B1 RNA with U25A, G28C, A29C, C30U, A31G
DNA 1: CAATCTGAATTCCGGTCTCCC
DNA 2: TGGTGGCTACGACGGGATT
B9: ACCAUGA (DNA:RNA)
RNA: B1 RNA with U25A, A26C, U27C, G28A, A29U, C30G
DNA 1: CAATCTGAATTCCGGTCTCCC
DNA 2: TGGTGGCTACGACGGGATT
B10: AGCUGCU (DNA:RNA)
RNA: B1 RNA with U25A, A26G, U27C, G28U, A29G, A31U
DNA 1: CAATCTGAATTCCGGTCTCCC
DNA 2: TGGTGGCTACGACGGGATT
B11: AUCAAUA (DNA:RNA)
RNA: B1 RNA with U25A, A26U, U27C, G28A, C30U
DNA 1: CAATCTGAATTCCGGTCTCCC
DNA 2: TGGTGGCTACGACGGGATT
B12: ACCGAUA (DNA:RNA)
RNA: B1 RNA with U25A, A26C, U27C, C30U
DNA 1: CAATCTGAATTCCGGTCTCCC
DNA 2: TGGTGGCTACGACGGGATT
B13: CCGCUGG (DNA:RNA)
RNA: GGGAGACCGGAAUUCAGAUUGUCCCCGCUGGUUAAAUCCCGUCGUAGCCACCA
DNA 1: CAATCTGAATTCCGGTCTCCC
DNA 2: TGGTGGCTACGACGGGATT
B14: UAGAGUU (DNA:RNA)
RNA: B1 RNA with U27G, G28A, A29G, C30U, A31U
DNA 1: CAATCTGAATTCCGGTCTCCC
DNA 2: TGGTGGCTACGACGGGATT
B15: ACGUCUC (DNA:RNA)
RNA: B13 RNA with C25A, C28U, U29C, G30U, G31C
DNA 1: CAATCTGAATTCCGGTCTCCC
DNA 2: TGGTGGCTACGACGGGATT
B16: ACAGUGG (DNA:RNA)
RNA: B13 RNA with C25A, G27A, C28G
DNA 1: CAATCTGAATTCCGGTCTCCC
DNA 2: TGGTGGCTACGACGGGATT
B17: CAUGCAC (DNA:RNA)
RNA: B1 RNA with U25C, A29C, C30A, A31C
DNA 1: CAATCTGAATTCCGGTCTCCC
DNA 2: TGGTGGCTACGACGGGATT
B18: UAAGCAC (DNA:RNA)
RNA: B1 RNA with U27A, A29C, C30A, A31C
DNA 1: CAATCTGAATTCCGGTCTCCC
DNA 2: TGGTGGCTACGACGGGATT
B19: CGUCCCA (DNA:RNA)
RNA: B1 RNA with U25C, A26G, G28C, A29C
DNA 1: CAATCTGAATTCCGGTCTCCC
DNA 2: TGGTGGCTACGACGGGATT
B20: CAGUAGC (DNA:RNA)
RNA: B13 RNA with C26A, C28U, U29A, G31C
DNA 1: CAATCTGAATTCCGGTCTCCC
DNA 2: TGGTGGCTACGACGGGATT
B21: AAUACCG (DNA:RNA)
RNA: B1 RNA with U25A, G28A, A29C, A31G
DNA 1: CAATCTGAATTCCGGTCTCCC
DNA 2: TGGTGGCTACGACGGGATT
B22: CCACAGU (DNA:RNA)
RNA: B13 RNA with G27A, U29A, G31U
DNA 1: CAATCTGAATTCCGGTCTCCC
DNA 2: TGGTGGCTACGACGGGATT
B23: ACGGGCC (DNA:RNA)
RNA: B13 RNA with C25A, C28G, U29G, G30C, G31C
DNA 1: CAATCTGAATTCCGGTCTCCC
DNA 2: TGGTGGCTACGACGGGATT
B24: UCGGCUG (DNA:RNA)
RNA: B13 RNA with C25U, C28G, U29C, G30U
DNA 1: CAATCTGAATTCCGGTCTCCC
DNA 2: TGGTGGCTACGACGGGATT
B25: UACAGCG (DNA:RNA)
RNA: B1 RNA with U27C, G28A, A29G, A31G
DNA 1: CAATCTGAATTCCGGTCTCCC
DNA 2: TGGTGGCTACGACGGGATT
B26: GUCUUUG (DNA:RNA)
RNA: B13 RNA with C25G, C26U, G27C, C28U, G30U
DNA 1: CAATCTGAATTCCGGTCTCCC
DNA 2: TGGTGGCTACGACGGGATT
B27: GUUAUGG (DNA:RNA)
RNA: B13 RNA with C25G, C26U, G27U, C28A
DNA 1: CAATCTGAATTCCGGTCTCCC
DNA 2: TGGTGGCTACGACGGGATT
B28: UCUUCUA (DNA:RNA)
RNA: B1 RNA with A26C, G28U, A29C, C30U
DNA 1: CAATCTGAATTCCGGTCTCCC
DNA 2: TGGTGGCTACGACGGGATT
B29: GCUGUGA (DNA:RNA)
RNA: B13 RNA with C25G, G27U, C28G, G31A
DNA 1: CAATCTGAATTCCGGTCTCCC
DNA 2: TGGTGGCTACGACGGGATT
B30: CAAGUCA (DNA:RNA)
RNA: B1 RNA with U25C, U27A, A29U
DNA 1: CAATCTGAATTCCGGTCTCCC
DNA 2: TGGTGGCTACGACGGGATT
B31: CUCUGCG (DNA:RNA)
RNA: B13 RNA with C26U, G27C, C28U, U29G, G30C
DNA 1: CAATCTGAATTCCGGTCTCCC
DNA 2: TGGTGGCTACGACGGGATT

target: T1, RBFOX1 RRM; experiment: EMSA; HiTS-Eq, 1 nM pool, 10 min; buffer printed only for the single-RNA assays: 10 mM Tris pH 7.5, 150 mM NaCl, 3.4 mM EDTA, 0.001% NP-40, 30 C; details: tags: His6 N-terminal (pET28a); label: 5' 32P
Outline: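 A pool of RNA with 7 randomized nucleotides, 5′-radiolabelled and with DNA-annealed flanks, was equilibrated at 1 nM for 10 min in 50 µL with purified RbFox RRM, wild type or mutant, across increasing protein concentrations. Free RNA was separated by 8% native PAGE, excised, reverse-transcribed, barcoded by PCR and sequenced. Relative association constants were obtained from read-count changes of each RNA species versus the control reaction and normalised to the cognate motif.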

Binder	binding signal
B1	0.00481 KA relative to UGCAUGU
B2	0.0144 KA relative to UGCAUGU
B3	0.018 KA relative to UGCAUGU
B4	0.0139 KA relative to UGCAUGU
B5	0.00325 KA relative to UGCAUGU
B6	0.0126 KA relative to UGCAUGU
B7	0.0286 KA relative to UGCAUGU
B8	0.00713 KA relative to UGCAUGU
B9	0.00589 KA relative to UGCAUGU
B10	0.0135 KA relative to UGCAUGU
B11	0.000983 KA relative to UGCAUGU
B12	0.00258 KA relative to UGCAUGU
B13	0.0189 KA relative to UGCAUGU
B14	0.0119 KA relative to UGCAUGU
B15	0.00814 KA relative to UGCAUGU
B16	0.0115 KA relative to UGCAUGU

Binder	binding signal
B17	0.00901 KA relative to UGCAUGU
B18	0.0104 KA relative to UGCAUGU
B19	0.00338 KA relative to UGCAUGU
B20	0.0114 KA relative to UGCAUGU
B21	0.00135 KA relative to UGCAUGU
B22	0.00373 KA relative to UGCAUGU
B23	0.0142 KA relative to UGCAUGU
B24	0.0209 KA relative to UGCAUGU
B25	0.011 KA relative to UGCAUGU
B26	0.0215 KA relative to UGCAUGU
B27	0.00848 KA relative to UGCAUGU
B28	0.00818 KA relative to UGCAUGU
B29	0.0164 KA relative to UGCAUGU
B30	0.000696 KA relative to UGCAUGU
B31	0.015 KA relative to UGCAUGU
